# PubChem BioAssay AID1963576 (National Center for Advancing Translational Sciences (NCATS), 2024)
# Hit rate of the full screen: of about 46,000 compounds, about 60 (0.1%) were called active. Roughly 3% stayed inconclusive and do not appear here. Calls follow the shape of the dose curve; as a rule, active = well fitted inhibition curve with a large enough effect; inconclusive = small, poorly fitted or top-dose-only effect; inactive = no such curve, though single readings can be large or run the other way. This is one part of the list.
# Test: Primary qHTS assay for Inhibitors of ovarian cancer metastasis using an organotypic tumor microenvironment (TME) model. Also: nearly all actives have a fitted effect of over 65% in size.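 As to activity change, negative = inhibition: plate controls were DMSO wells for no effect and tomatine positive control wells for full effect.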
# Conditions: SKOV3ip1-GFP adhesion/invasion on 3D omental model, fluorescence; series mostly up to 45.8 µM; activity change, negative = inhibition: at the top concentration
# In short: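 qHTS, 4-pt dose (0.36-46 umol/L); SKOV3ip1-GFP, 1,200 cells/well, no FBS; primary omental fibroblast/mesothelial co-culture 48 h pre-grown; 2 h RT + 16 h 37 C; PBS wash, 4% PFA; GFP count 488/509 nm.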
SMILES,"activity change, negative = inhibition",outcome
Cc1ccc(-c2cnc(NCc3ccc(C(C)C)cc3)n2C)cc1,inactive: -7.33%,–
Cc1ccc(CNC(=O)COCc2cc(-c3ccc4c(c3)OCO4)on2)cc1,inactive: -5.19%,–
CCOc1ccc2cc(-c3nnc(Nc4ccccc4F)s3)c(=O)oc2c1,–,inactive
CCOc1ccc(S(=O)(=O)c2cn(Cc3ccc(C)cc3)c3ccc(OC)cc3c2=O)cc1,inactive: -4.29%,–
Cc1ccc(Cl)cc1N1CCN(C(=O)c2cn(C)c3ccc(S(=O)(=O)N4CCC(C)CC4)cc3c2=O)CC1,inactive: -5.31%,–
COc1ccc(NCc2nc3ccccc3n2CCOc2ccc(C)cc2)cc1,inactive: -12.9%,–
CCCOc1ccc(C(=O)N(Cc2cccs2)C2CCS(=O)(=O)C2)cc1 (stereo unspecified),inactive: 14.8%,–
O=C(NCC(c1ccc(Cl)cc1)N1CCCCC1)c1ccccc1 (stereo unspecified),inactive: 7.17%,–
CCN(CC)c1ccc(C(=O)N2CCC(c3ccncc3)CC2)cc1,inactive: -11.3%,–
O=C(Nc1nc2ccc(Cl)cc2s1)c1ccc(S(=O)(=O)N2CCCC2)cc1,inactive: 1.96%,–
CCN(CC)S(=O)(=O)c1ccc2nc(NC(=O)c3ccc(Br)o3)sc2c1,–,inactive
CCOc1cccc(C2c3[nH]c4ccccc4c3CCN2C(=O)CCc2ccccc2)c1 (stereo unspecified),inactive: 6.35%,–
Cc1cccc(NC(=O)C2CCCN(c3nnc(-n4c(C)ccc4C)s3)C2)c1C (stereo unspecified),inactive: -21.2%,–
CCOC(=O)c1nc(Nc2ccccc2C)c2ccccc2n1,inactive: 0.159%,–
O=C(NCc1noc2ccccc12)Nc1ccc(F)cc1F,inactive: -15.3%,–
CCc1ccc(S(=O)(=O)c2cn(C)c3cc(OC)c(OC)cc3c2=O)cc1,inactive: -1.59%,–
CC(C)c1ccc(NC(=O)CN2C(=O)c3cccc4cccc2c34)cc1,inactive: -6.82%,–
CCC1CCc2c(sc(NC(=O)C3c4ccccc4Oc4ccccc43)c2C#N)C1 (stereo unspecified),–,inactive
CCCN(C(=O)Cn1c(=O)oc2cc(Cl)ccc21)c1ccc(C(C)C)cc1,inactive: 3.06%,–
CC1CC2C3CCC4=CC(=O)C=C[C@]4(C)[C@@]3(F)[C@@H](O)C[C@]2(C)[C@@]1(O)C(=O)CO (stereo partly specified),inactive: 25.6%,–
COc1ccc(C)cc1NC(=O)CN1C(=O)COc2ccc(S(=O)(=O)N3CCCCCC3)cc21,inactive: 6.87%,–
CCOC(=O)C1CCCN(C(=O)c2ccc3c(c2)N(Cc2cccc(Cl)c2)C(=O)c2ccccc2S3(=O)=O)C1 (stereo unspecified),inactive: 7.11%,–
CCOC(=O)c1ccc(Nc2nc(C(=O)OCC)nc3ccccc23)cc1,inactive: -0.921%,–
O=C(CN1C(=O)COc2ccc(S(=O)(=O)N3CCCCC3)cc21)NCc1ccccc1Cl,inactive: -2.4%,–

SMILES,"activity change, negative = inhibition",outcome
Cc1cc(Nc2cc(Cl)ccc2C)n2nc(Cc3ccccc3)nc2n1,inactive: -4.92%,–
Cc1ccc(C)c(CN2C(=O)c3ccccc3S(=O)(=O)c3ccc(C(=O)N4CCN(C)CC4)cc32)c1,inactive: -2.2%,–
Cc1cc(C)c(S(=O)(=O)NCC(c2ccc(N(C)C)cc2)N2CCc3ccccc32)c(C)c1 (stereo unspecified),inactive: -8.28%,–
COc1ccc(CNC(=O)Cc2coc3ccc(C(C)C)cc23)cc1,inactive: 5.42%,–
CCOc1ccccc1CNC(=O)CSc1n[nH]c(-c2ccccc2Cl)n1,inactive: -9.88%,–
COc1ccc(-c2nnc(SCC(=O)Oc3cccc(C)c3C)o2)cc1,inactive: -8.54%,–
COc1ccccc1NC(=O)CSc1oc(-c2ccco2)nc1S(=O)(=O)c1ccc(Br)cc1,inactive: 0.396%,–
Cc1cc(OCCn2cc(C(=O)c3ccco3)c3ccccc32)ccc1Cl,inactive: 0.735%,–
COc1cccc(CNC(=O)CCc2nc(-c3ccc(C)cc3)no2)c1,inactive: -8.16%,–
Cc1nn(CC(=O)NCc2cccc(F)c2)c(=O)c2c(C)n(-c3ccc(Cl)cc3)nc12,inactive: -7.51%,–
COc1ccccc1Oc1nc2c(C)cccn2c(=O)c1/C=C(\C#N)c1nc2ccccc2[nH]1,inactive: -0.0612%,–
Cc1ccc(CCNC(=O)c2cc3sccc3n2Cc2ccc(Cl)cc2)cc1,–,inactive
CCOC(=O)c1cc(-c2ccc(C)cc2)n(CC(=O)Nc2ccc(OC)c(Cl)c2)c1C,inactive: -0.395%,–
CC1CN(C(=O)CCC(=O)NCc2cccs2)c2cc(Cl)ccc2O1 (stereo unspecified),inactive: -10.3%,–
Cc1ccc2c(c1)c1c(c(=O)n(-c3ccccc3)c(=O)n1CC(=O)NCCC1=CCCCC1)n2C,–,inactive
COc1ccc(N(C(=O)c2ccccc2C)S(=O)(=O)c2ccc(C)cc2)cc1,inactive: 1.28%,–
CCOC(=O)C1=C(CN2CCN(c3cc(C)ccc3C)CC2)NC(=O)NC1c1ccccc1 (stereo unspecified),inactive: -12%,–
COc1ccc2nc(N(Cc3cccnc3)C(=O)c3ccco3)sc2c1,inactive: -25.6%,–
COc1ccc(-n2cc(C(=O)NCc3ccc(Cl)cc3)c3ccccc3c2=O)cc1,inactive: -0.642%,–
Cc1ccc(-c2nnn(CC(=O)N(CC(=O)NCCC(C)C)c3ccc(F)cc3)n2)cc1,inactive: -9.29%,–
CCC(C)NC(=O)c1ccccc1NC(=O)C1CCN(S(=O)(=O)Cc2ccccc2)CC1 (stereo unspecified),–,inactive
COc1ccccc1N1CCN(S(=O)(=O)c2cc(-c3cc(C)no3)ccc2C)CC1,inactive: -6.49%,–
CCc1ccc2oc(C(=O)NCCc3ccc(OC)c(OC)c3)cc(=O)c2c1,inactive: -1.95%,–
O=C(c1ccc2c(c1)OCCO2)N(Cc1cccnc1)c1nc2ccc(Cl)cc2s1,–,inactive

SMILES,"activity change, negative = inhibition",outcome
COc1cccc(CN2C(=O)C3(SCC(=O)N3c3cc(C)cc(C)c3)c3ccccc32)c1 (stereo unspecified),inactive: -0.146%,–
Cc1coc2c1c(C)cc1oc(=O)c(CC(=O)NCc3ccc(Cl)cc3)c(C)c12,–,inactive
Cc1ccc2nc(-c3c[nH]c4ccccc34)c(Nc3ccccc3)n2c1,inactive: -4.89%,–
O=C(NCCc1ccc(F)cc1)C(=O)NCC(c1ccc2c(c1)OCO2)N1CCOCC1 (stereo unspecified),inactive: -1.62%,–
COc1ccc(S(=O)(=O)Nc2cc(-c3cn4cccc(C)c4n3)ccc2C)cc1C,inactive: -1.25%,–
Cc1ccc(C(C)C)c(OCC(=O)Nc2nc3c(s2)CCCC3)c1,inactive: -9.95%,–
CCCCCOC(=O)c1ccc(Nc2nc(C(=O)OCC)nc3ccccc23)cc1,inactive: -8.76%,–
CC1=C(C(=O)Nc2ccc(C)c(C)c2)C2(CCCCCC2)OC1=O,inactive: -0.244%,–
COc1ccc(-c2cnc(NCc3ccc(C)cc3)n2C)cc1,inactive: -3.18%,–
O=C(CSc1nc(-c2ccccc2)cc(=O)[nH]1)Nc1ccccc1F,inactive: -8.96%,–
Cc1ccc2[nH]c(=O)c3cc(C(=O)N4CCN(c5ccccc5F)CC4)sc3c2c1,–,inactive
CCC(C)NC(=O)c1sc2nc(C)c(C(=O)Nc3ccc(C)cc3C)c(-c3ccc(Br)cc3)c2c1N (stereo unspecified),inactive: 13%,–
COc1cc(C2NC(=O)N(C)C3=C2C(=O)N(c2ccccc2)C3)ccc1O (stereo unspecified),inactive: 7.42%,–
O=C(NCc1ccccc1)c1cccc(NC(=O)N2CCSc3ncccc32)c1,–,inactive
COc1ccccc1NC(=O)CSc1oc(-c2cccs2)nc1S(=O)(=O)c1ccc(C)cc1,inactive: 14.4%,–
CCN(CC)c1nc2c(S(=O)(=O)c3ccc(C)cc3)nnn2c2ccsc12,inactive: 0.832%,–
Cc1cccc(CSc2ncc(Cl)c(C(=O)Nc3sc4c(c3C#N)CCCC4)n2)c1,–,inactive
COc1ccc(CCNC(=O)CSc2nc3ccccc3nc2Cc2ccc(C)cc2)cc1OC,inactive: 1.68%,–
COc1ccccc1CNC(=O)c1nn(-c2ccc(C)cc2)c(=O)c2c1c1ccccc1n2C,inactive: -0.955%,–
CCCSc1nnc2c(n1)OC(CC)N(C(C)=O)c1ccccc1-2 (stereo unspecified),inactive: 3.8%,–
O=C(CN1C(=O)COc2ccc(S(=O)(=O)N3CCCCC3)cc21)NCCc1ccc(Cl)cc1,inactive: -0.491%,–
Cc1ccccc1NC(=O)c1ccccc1NC(=O)c1ccccc1F,inactive: -7.38%,–
COc1ccc(-c2nc3ccc(C(=O)NCc4ccccc4)cc3nc2-c2ccc(OC)cc2)cc1,inactive: 1.45%,–
O=C(Nc1nnc(S(=O)(=O)N2CCCC2)s1)c1ccccc1Cl,inactive: 1.06%,–

SMILES,"activity change, negative = inhibition",outcome
OC[C@H]1O[C@@H](O[C@H]2[C@@H](O)[C@@](O)(CO)O[C@@H]2CO)[C@H](O)[C@@H](O)[C@@H]1O,inactive: -9.79%,–
CCn1ccc2cc(S(=O)(=O)N3CCC(C(=O)NCc4ccc(OC(C)C)cc4)CC3)ccc21,inactive: -1.64%,–
Cc1cccc(OCC(=O)NCc2ccc3c(c2)CCN3C(=O)c2ccccc2)c1,inactive: 13.2%,–
CC1=C(c2ccc(C)c(C)c2)S(=O)(=O)N(Cc2ccc(C(=O)NCc3ccc(C)cc3)cc2)C1=O,inactive: 6.51%,–
COc1ccc(Cc2nc3c4cnn(-c5ccccc5Br)c4ncn3n2)cc1,inactive: 21.4%,–
COc1ccc(N2CCN(S(=O)(=O)c3c(C)nc4sc(C)cn4c3=O)CC2)cc1,inactive: 4.37%,–
COC(=O)COc1ccc(Oc2nc(NC(C)(C)C)nc(N3CCOCC3)n2)nn1,–,inactive
CCOc1ccccc1CNC(=O)Cn1nc(C)c2nn(-c3ccc(Cl)cc3)c(C)c2c1=O,–,inactive
O=C(Cn1nc(C(F)(F)F)c2c1CCCC2)Nc1ccc(F)c(Cl)c1,inactive: -6.89%,–
CC(=O)Nc1ccc(NC(=O)Nc2sc3nc4n(c(=O)c3c2C)CCC(C)CC4)cc1 (stereo unspecified),inactive: 0.974%,–
COc1ccc(-c2ccc(=O)n(CC(=O)Nc3ccc(N(C)C)cc3)n2)cc1,inactive: 1.41%,–
Cc1c(C(=O)NCc2ccc(F)cc2)sc2nc3n(c(=O)c12)CCC3,inactive: 2.88%,–
CCOc1ccc(NC(=O)c2cc(CN3CCCC3)on2)cc1,inactive: 1.77%,–
COc1ccc(/C=C/C(=O)Nc2ccc(Cl)c(Cl)c2)cc1OC,inactive: -15.1%,–
O=C(Cn1c(=O)oc2cc(S(=O)(=O)NCc3ccccc3)ccc21)NCc1ccc(F)cc1,inactive: -0.432%,–
COc1ccc(OC)c(NC(=O)Cn2cc(C(=O)c3cccs3)c3ccccc32)c1,inactive: 12.4%,–
Cc1ccc2nc(Nc3ccc(Br)cc3)nc(-c3ccccc3)c2c1,inactive: -6.1%,–
Cc1cccc(N(C)C(=O)C2CCN(S(=O)(=O)c3cccc4nonc34)CC2)c1,inactive: 3.82%,–
COc1ccc(OC)c(NC(=O)c2ccc(-c3nc(COc4ccccc4)c(C)o3)cc2)c1,inactive: 2.4%,–
Cc1c(NC(=O)c2cc3ccccc3o2)cccc1-c1nc2ccccc2o1,inactive: 6.07%,–
CCCCc1nn2c(=O)cc(COC(=O)CNC(=O)c3ccccc3C)nc2s1,inactive: 102%,–
CCOc1ccc2oc(=O)cc(CN3CCN(C(=O)c4ccc(Cl)cc4)CC3)c2c1,–,inactive
CSc1ccc(C2c3c(oc4ccc(F)cc4c3=O)C(=O)N2c2ccc(C)cn2)cc1 (stereo unspecified),inactive: -2.02%,–
CCc1cccc(CC)c1NC(=O)Cc1csc(C)n1,–,inactive
